Read counts are not given, so values of variants with three or more changes are uncertain.

First the molecules themselves.
B1: LINE1-mini (parent)
chain: GGCAGAGCUCAACACAGCGUGGCAAAGUGGCUGUGGCUAGACUGCC

This series covers variants of B1. Put plainly: self-cleavage, relative activity (ratio to wild type); higher = more cleavage; in vitro, sequencing; the parent is a self-cleaving ribozyme.
Consider GGCAGAGCUCAACACAGCGUGUCCAAGUCGCUGUGGCUAGACUGCC [G22U A24C G29C], for which the self-cleavage was found to be 0.64.
In the case of GGCAGAGCUCAACACAGCGUGCCAAAAUAGCUGUGGCUAGACUGCC [G22C G27A G29A], the self-cleavage turned out to be 0.72.
With GGCAGAGCUCAACACAGCGUGCCAAAGUGGUUGUGGCUAGAGUGCC [G22C C31U C42G] the figure was 0.04; with GGCAGAGCUCAACACAGCGUGCCAUAGUGGCUGUCGCUAGACUGCC [G22C A25U G35C], 0.2.
Next, GGCAGAGCUCAACACAGCGUGCCAAAGUGCCUGCGGCUAGACUGCC [G22C G30C U34C]: 0.16; GGCAGAGCUCAACACAGCGUGUCAAAAAGGAUGUGGCUAGACUGAC [G22U G27A U28A C31A C45A]: 0.13.
Next, GGCAGAGCUCAACACAGCGUGCCAAAGUGGCUGUUGCAAGACUGCC [G22C G35U U38A]: 0.18; GGCAGAGCUCAACACAGCGUGCCUAAGUGGCUGUGGCUUGACUGCC [G22C A24U A39U]: 0.36; GGCAGAGCUCAACACAGCGUGUCAAAGCGGCUGUGGCUAGUCUUCC [G22U U28C A41U G44U]: 0.05.
Take GGCAGAGCUCAACACAGCGUGUCAAAGUGGCUGUGGAUAGACUGUC [G22U C37A C45U]: the self-cleavage was found to be 0.02.
On to GGCAGAGCUCAACACAGCGUGUGAAAGUGGCUGUGGCUAGACUGCG [G22U C23G C46G], for which the self-cleavage amounted to 1.93.
With GGCAGAGCUCAACACAGCGUGUCAAAGGGGCUGUGCGUAGACUGCC [G22U U28G G36C C37G] the figure was 0.03.
As for GGCAGAGCUCAACACAGCGUGUCAAAGUGGCUGUGGUUAGACUGCU [G22U C37U C46U], the self-cleavage was 0.02.
Next, GGCAGAGCUCAACACAGCGUGCCAAAGUGGCUGUGGCUAGAAUACC [G22C C42A G44A]: 0.14; GGCAGAGCUCAACACAGCGUGACAAAGUGGCUGUGCCUAGACCGCC [G22A G36C U43C]: 0.1.
Next, GGCAGAGCUCAACACAGCGUGUUAAAGUCGCUGUGGCUAGACUGCC [G22U C23U G29C]: 0.25; GGCAGAGCUCAACACAGCGUGUCAAACGGGCUGUGGCUAGACUGCC [G22U G27C U28G]: 0.9; GGCAGAGCUCAACACAGCGUGUCAAAGAGGGUGUGGCUAGACUGCC [G22U U28A C31G]: 0.05.
Next, GGCAGAGCUCAACACAGCGUGACAAAGUGGCGGUGGCUAGACUGUC [G22A U32G C45U]: 0.37.
In the case of GGCAGAGCUCAACACAGCGUGUCAAAGUGGCGGUGGCUAGAAUGCC [G22U U32G C42A], the self-cleavage came out at 0.07.
With GGCAGAGCUCAACACAGCGUGCCAAAGUGGCUGGGGCUAGACUGCA [G22C U34G C46A] the figure was 0.01; with GGCAGAGCUCAACACAGCGUGCAAAGGGGCCUGUGGCUAGACUGCC [G22C C23A A26G U28G G30C], 0.33; with GGCAGAGCUCAACACAGCGUGCCAAAGUGGCUGUUAUUAGACUGCC [G22C G35U G36A C37U], 0.12.
In the case of GGCAGAGCUCAACACAGCGUGGAAAAAUGGCUGUGGCUAGCCUGCC [C23A G27A A41C], the self-cleavage turned out to be 0.02.
Next, GGCAGAGCUCAACACAGCGUGGAAAAUUGGCUGUGGCUAGACUGGC [C23A G27U C45G]: 0.32; GGCAGAGCUCAACACAGCGUGACAAAGUGGCUGUGGCAAGACUACC [G22A U38A G44A]: 0.07; GGCAGAGCUCAACACAGCGUGACAAAGUGGCUGUGUCUAGCCUGCC [G22A G36U A41C]: 0.01.
Next, GGCAGAGCUCAACACAGCGUGGAAAAUUGUCUGUGGCUAGACUGCC [C23A G27U G30U]: 0.93; GGCAGAGCUCAACACAGCGUGCCAAAGGGGCUGUGGCUAGACUGGC [G22C U28G C45G]: 0.09; GGCAGAGCUCAACACAGCGUGUCAAAGUUGCUGUGGCUAGACUGUC [G22U G29U C45U]: 0.61.
For GGCAGAGCUCAACACAGCGUGGAAAAGUGGUUGGGGCUGGACUGCC [C23A C31U U34G A39G], the self-cleavage amounted to 0.01.
Next, GGCAGAGCUCAACACAGCGUGGAAAAGUGGUUGUGACUAGACUGCC [C23A C31U G36A]: 0.07.
Next, GGCAGAGCUCAACACAGCGUGGAACUGUGGCUGUGGCUAGAGUGCC [C23A A25C A26U C42G]: 0.07.
As for GGCAGAGCUCAACACAGCGUGUCAAAGUGGCAGUGGAUAGACGGCU [G22U U32A C37A U43G C46U], the self-cleavage was determined as 0.02.
On to GGCAGAGCUCAACACAGCGUGGAUAAGUGGCUGUGACUAGACUGCC [C23A A24U G36A], for which the self-cleavage was determined as 0.17.
In the case of GGCAGAGCUCAACACAGCGUGUCAAAGUCGUUGUAGCUAGACUGCC [G22U G29C C31U G35A], the self-cleavage came out at 0.06.
With GGCAGAGCUCAACACAGCGUGCCAAAGUGCCUGUGGCUAGAGUGCC [G22C G30C C42G] the figure was 0.1; with GGCAGAGCUCAACACAGCGUGUCAAAGUGGCUGUGGCAUUACUGCC [G22U U38A A39U G40U], 0.09; with GGCAGAGCUCAACACAGCGUGACAAAGUGGCUAUGGCUAGACUGCA [G22A G33A C46A], 0.11.
On to GGCAGAGCUCAACACAGCGUGCUAAAGUGGCUGUGGAUAGAAUGCC [G22C C23U C37A C42A], for which the self-cleavage is 0.05.
With GGCAGAGCUCAACACAGCGUGACAAAGUGGCUUUUGCUAGACUGCC [G22A G33U G35U] the figure was 0.06.
GGCAGAGCUCAACACAGCGUGCCAAAGUGGCUGUGGCUAGACUCCG [G22C G44C C46G]: the self-cleavage stood at 0.
GGCAGAGCUCAACACAGCGUGACAAAGUGGCUCUGGCCAGACUGCC [G22A G33C U38C]: the self-cleavage amounted to 0.02.
With GGCAGAGCUCAACACAGCGUGCCAAAGUGGCUGAGGCUAUACUGCC [G22C U34A G40U] the figure was 0.31; with GGCAGAGCUCAACACAGCGUGUCCAAGUGGCUGUGGCUAGCCUGAU [G22U A24C A41C C45A C46U], 0.06; with GGCAGAGCUCAACACAGCGUGCCAAAGUGGCUCUGACUAGACUGCC [G22C G33C G36A], 0.02.
Consider GGCAGAGCUCAACACAGCGUGUCAAGGUGGCUGUGGCUAGACCGCC [G22U A26G U43C], for which the self-cleavage was found to be 0.54.
Next, GGCAGAGCUCAACACAGCGUGUCCAAGUGGCUGUGGCUAGACUGCU [G22U A24C C46U]: 0.31.
Next, GGCAGAGCUCAACACAGCGUGGAACGGUGGCUGUGGCUAGAAUGCU [C23A A25C A26G C42A C46U]: 0.04.
As to GGCAGAGCUCAACACAGCGUGUUAAAGUGCCUGUUGCUAGACUGCC [G22U C23U G30C G35U], the self-cleavage is 0.04.
Next, GGCAGAGCUCAACACAGCGUGCCAAAGUGGCAGUAGCUAGAGUGCC [G22C U32A G35A C42G]: 0.06.
With GGCAGAGCUCAACACAGCGUGGAAUUGUGGCUGUGGCUAGACUGCC [C23A A25U A26U] the figure was 1.18; with GGCAGAGCUCAACACAGCGUGUCAAACUGGCUGUGGCUAGAUUGCC [G22U G27C C42U], 1.26.
Next, GGCAGAGCUCAACACAGCGUGACAAAGCGGCUGUAGCUAGACUGCC [G22A U28C G35A]: 0.19; GGCAGAGCUCAACACAGCGUGCCAAAGUCGCUGUGGCGAGACUGCC [G22C G29C U38G]: 0.03; GGCAGAGCUCAACACAGCGUGGAAAAUUGGCUGUGGCUAGACUGCG [C23A G27U C46G]: 0.78.

The values are drawn from the RNAGym collection of RNA variant scans (doi:10.7554/elife.90254).
